According to PubChem BioAssay AID485281 (National Center for Advancing Translational Sciences (NCATS), 2010):
In all, about 350,000 compounds went through this assay and about 260 (0.074%) were called active. This list was built around the results that the source calls inconclusive (neither active nor inactive); the mix of calls is not that of the screen. The call rests on the fitted dose curve; in most records, active means well fitted inhibition curve with a large enough effect; inconclusive means small, poorly fitted or top-dose-only effect; inactive means no such curve, though single readings can be large or run the other way. A potency beside an inconclusive call is a rough fit, not a confirmed value.

The compounds below were run against Ferritin light chain (Equus caballus) (UniProt P02791) (assay: qHTS Assay for Identification of Novel General Anesthetics). Details: apoferritin/1-aminoanthracene competitive binding, fluorescence; activity change, negative = displacement: at 77.5 µM (top of the series).
UniProt P02791, sequence (P02791 whole entry, looked up): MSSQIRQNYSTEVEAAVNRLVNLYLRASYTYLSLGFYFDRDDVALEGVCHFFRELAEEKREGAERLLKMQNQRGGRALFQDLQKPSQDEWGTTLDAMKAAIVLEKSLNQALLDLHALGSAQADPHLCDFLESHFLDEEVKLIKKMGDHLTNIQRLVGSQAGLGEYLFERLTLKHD
Method in brief: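 In PBS, apoferritin at 10 uM is loaded with 1-AMA from a 50% saturated solution. After 10 min of compound exposure at ambient temperature, reduced 535 nm fluorescence indicates probe displacement.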
Further: nearly all actives have a fitted effect of over 20% in size.
On the % scale 0 is the no-effect control and ±100 the full control effect; potency means the concentration at half of the fitted maximal effect; tags describe the fitted curve by direction and shape.

SMILES | Potency | activity change, negative = displacement
Cn1nnnc1SCCCNCc1cccc(OCc2ccc(Cl)cc2)c1 | inconclusive: 25.1 µM [inhibitor, partial curve] | –
O=C(O)C1C2C=CC(C2)C1C(=O)NCc1ccccc1F (stereo unspecified) | inconclusive: 22.4 µM [inhibitor, partial curve] | –
CCCCCn1c(CN2CCN(c3cccc(Cl)c3)CC2)nc2c1c(=O)[nH]c(=O)n2C | inconclusive: 5.62 µM [inhibitor, full curve, poor fit] | –
CCCNC(=O)c1cc(-c2ccc(Br)cc2)on1 | – | inactive: -5.82%
CCC(CC)c1nnc(NC(=O)c2cccc(S(=O)(=O)N3CCc4ccccc43)c2)s1 | inconclusive: 15.8 µM [inhibitor, partial curve] | –
COc1ccc(C(=S)Nc2ccc(C)cc2)cc1 | – | inactive: -14.7%
Cc1[nH]c2ccccc2c1C(=O)CN1C(=O)C(=O)N(Cc2ccco2)C1=O | inconclusive: 39.8 µM [inhibitor, single point] | –
Cc1ccc(NC(=O)Cn2c(-c3ccc4c(c3)OCO4)cn(-c3ccccc3)c2=O)cc1C | – | inactive: -5.74%
O=C(CC(Nc1ccccc1)C(=O)O)c1ccccc1 (stereo unspecified) | inconclusive: 25.1 µM [inhibitor, partial curve] | –
c1cncc(-c2noc(CC3CCCCC3)n2)c1 | inconclusive: 28.2 µM [inhibitor, partial curve] | –
Cn1c(SCC(=O)N2c3ccccc3CCc3ccccc32)nnc1-c1ccc(O)cc1 | – | inactive: -17.9%
O=C(c1ccccc1)c1ccccc1NC(=O)c1ccccc1C(=O)O | inconclusive: 39.8 µM [inhibitor, partial curve] | –
CCCOc1cccc(-c2cc(C(=O)NNC(=S)NCC)c3ccccc3n2)c1 | inconclusive: 56.2 µM [inhibitor, single point] | –
CSc1nnc(-c2sc3cc(C(F)(F)F)cnc3c2-c2ccccc2)n1C | inconclusive: 35.5 µM [inhibitor, partial curve] | –
CCCCCSc1nnc(N)s1 | inconclusive: 25.1 µM [inhibitor, partial curve] | –
COc1ccc(CNC(=O)C(CCSC)NC(=O)c2ccco2)cc1 (stereo unspecified) | inconclusive: 44.7 µM [inhibitor, single point] | –
Cc1ccc(CN(CC2CCCO2)C(=O)CN2C(=O)C(C(C)C)Oc3ccccc32)o1 (stereo unspecified) | inconclusive: 28.2 µM [inhibitor, partial curve] | –
COc1ccc(-c2noc(-c3ccc(NC4CCCC4)c([N+](=O)[O-])c3)n2)cc1 | – | inactive: -3.74%
Cc1nc(-c2ccc(S(=O)(=O)N3CCN(C4c5ccccc5-c5ccccc54)CC3)s2)cs1 | – | inactive: -15%
Cc1ccc(Oc2ccc(Oc3ccc(C)cc3)nn2)cc1 | – | inactive: -8.78%
N#C/C(=C/c1ccc(N2CCOCC2)o1)c1ccc(Br)cc1 | inconclusive: 31.6 µM [inhibitor, partial curve] | –
Cc1ccc(C)c(NC(=O)C2CCCN(S(=O)(=O)c3ccc4[nH]c(=O)ccc4c3)C2)c1 (stereo unspecified) | inconclusive: 31.6 µM [inhibitor, single point] | –
CCC(=O)Nc1nc(-c2ccc3c(c2)OCCO3)cs1 | – | inactive: -9.15%
CC(Sc1ncnc2sc(-c3ccccc3)cc12)C(N)=O (stereo unspecified) | – | inactive: -1.08%

SMILES | Potency | activity change, negative = displacement
Cc1ccc(OC(=O)CCN2C(=O)c3ccccc3C2=O)cc1C | inconclusive: 39.8 µM [inhibitor, single point] | –
Cc1[nH]n(C(N)=S)c(=O)c1N=Nc1ccc(S(=O)(=O)N2CCCC2)cc1 | inconclusive: 39.8 µM [inhibitor, single point] | –
COc1ccc(NC(=O)CSc2c3c(nc4ccccc24)CCCC3)c(OC)c1 | inconclusive: 35.5 µM [inhibitor, single point] | –
Cc1ccccc1-n1c(C)n[nH]c1=S | – | inactive: -5.68%
COc1ccc(N(CC(=O)Nc2cccc(C(=O)O)c2)S(=O)(=O)c2c(C)noc2C)cc1 | – | inactive: -5.86%
CC1CCCCC1NC(=O)COC(=O)c1ccc(S(=O)(=O)NCc2ccco2)cc1 (stereo unspecified) | inconclusive: 12.6 µM [inhibitor, partial curve] | –
CCn1ccc(C(=O)Nc2cccc(Cl)c2)n1 | – | inactive: -11.2%
Cc1ccc2nc(N3CCN(CCO)CC3)nc(-c3ccccc3)c2c1 | – | inactive: 76.9%
COc1cccc(NC(=O)CC2C(=O)OCCN2Cc2ccccc2)c1 (stereo unspecified) | – | inactive: 15.9%
Cc1cccc(N=c2c([N+](=O)[O-])nn(-c3ccc(Cl)cc3)n2O)c1 | inconclusive: 31.6 µM [inhibitor, partial curve] | –
O=C(NCc1ccc(F)cc1)c1cc2c(s1)CCCC2 | inconclusive: 31.6 µM [inhibitor, partial curve] | –
CC1CCN(C(=O)COC(=O)c2cc3ccccc3cc2O)CC1 | inconclusive: 15.8 µM [inhibitor, partial curve] | –
CC(NC(=O)COC(=O)c1ccc2ccccc2n1)C1CC2CCC1C2 (stereo unspecified) | inconclusive: 15.8 µM [inhibitor, partial curve] | –
CCOc1cc(/C=N/NC(=O)CNc2cccc(C)c2)ccc1OC(=O)c1ccccc1 | inconclusive: 6.31 µM [inhibitor, partial curve] | –
CC(=O)c1cccc(NC(=O)C(OC(=O)/C=C/c2ccc3c(c2)OCO3)c2ccccc2)c1 (stereo unspecified) | – | inactive: -17.3%
COc1cccc(Cn2c(=O)sc3ccccc3c2=O)c1 | inconclusive: 20 µM [inhibitor, partial curve] | –
CC(=O)OC1CC2C(C)(C)C(O)CC(O)[C@@]2(C)C2CC[C@@]3(C)C(=CC(=O)OC3c3ccoc3)[C@]12C (stereo partly specified) | inconclusive: 20 µM [inhibitor, partial curve] | –
Cc1ccc(-c2csc(N3CCC[C@@H]3C(=O)NCCn3c(C(F)(F)F)nc4ccccc43)n2)cc1 | inconclusive: 11.2 µM [inhibitor, partial curve] | –
O=C(Nc1ccccc1)OCc1ccccn1 | inconclusive: 44.7 µM [inhibitor, single point] | –
CC(C)C[C@H](NC(=O)[C@@H]1Cc2ccccc2CN1)C(=O)Nc1ccc(C(C)C)cc1 | inconclusive: 35.5 µM [inhibitor, partial curve] | –
CC1CCC(C(C)C)C(OCC(O)CNC(C)c2ccccc2)C1 (stereo unspecified) | inconclusive: 15.8 µM [inhibitor, partial curve] | –
CCOc1ccc(/C=N/NC(=O)Cc2csc(Nc3cccc(C(F)(F)F)c3)n2)c(OCC)c1 | inconclusive: 3.98 µM [inhibitor, full curve, poor fit] | –
Cn1c(CSCc2ccc(Cl)cc2Cl)n[nH]c1=S | – | inactive: -23.6%
CCCC(C)C(=O)NCc1ccccc1OC (stereo unspecified) | inconclusive: 56.2 µM [inhibitor, single point] | –

SMILES | Potency | activity change, negative = displacement
O=C(CSc1nc2ccc([N+](=O)[O-])cc2[nH]1)NC1CCCC1 | inconclusive: 28.2 µM [inhibitor, partial curve] | –
C=C(C)COc1ccc(-c2[nH]ncc2-c2ccc(Br)cc2)c(O)c1 | inconclusive: 50.1 µM [inhibitor, single point] | –
Cc1c(C=O)c2ccccc2n1CC(=O)NCc1ccccc1 | – | inactive: 0.187%
COc1cccc(C(=O)COC(=O)C(C)N2C(=O)C3C4C=CC(C4)C3C2=O)c1 (stereo unspecified) | inconclusive: 25.1 µM [inhibitor, partial curve] | –
Cc1cccc2c1cnn2C(=O)CCC(=O)N1CC(C)CC(C)C1 (stereo unspecified) | inconclusive: 35.5 µM [inhibitor, single point] | –
Cc1cc(-c2ccn[nH]2)c(C)s1 | inconclusive: 31.6 µM [inhibitor, partial curve] | –
CCCNC(=O)/C=C/c1ccc(S(=O)(=O)Nc2ccccc2OC)cc1 | inconclusive: 25.1 µM [inhibitor, partial curve] | –
CCCN1C(=O)/C(=C/c2ccc(N3CCCC3)c(C)c2)NC1=S | inconclusive: 28.2 µM [inhibitor, partial curve] | –
O=CN(/C=C1\Sc2ccccc2C1=O)Cc1ccccc1 | inconclusive: 28.2 µM [inhibitor, partial curve] | –
COc1ccccc1C(C)NCC(=O)NCc1ccc(C)cc1 (stereo unspecified) | – | inactive: -9.68%
O=c1c(-c2ccco2)[n+]([O-])c2ccccc2n1OCc1ccccc1 | – | inactive: -5.83%
CC(NC(=O)OC(C)(C)C)C(=O)NC(CCC(=O)OCc1ccccc1)C(N)=O (stereo unspecified) | – | inactive: -3.73%
O=C(NC1CCCCCC1)c1nnc(Cc2ccc(Cl)cc2)o1 | inconclusive: 10 µM [inhibitor, partial curve] | –
COC(=O)c1sc2cccc(F)c2c1S(=O)(=O)Nc1cc(OC)cc(OC)c1 | inconclusive: 20 µM [inhibitor, partial curve] | –
Cc1[nH]c2ccccc2c1SCc1ccccc1 | inconclusive: 22.4 µM [inhibitor, partial curve] | –
O/N=C1/CCCSc2ccccc21 | inconclusive: 25.1 µM [inhibitor, partial curve] | –
O=C(O)c1ccccc1C(=O)NNc1ccc(Cl)cc1Cl | inconclusive: 35.5 µM [inhibitor, partial curve] | –
CCOC(=O)C1CCN(C(=O)c2oc3ccc4c(c3c2C)C(O)CC2(CCCCC2)O4)CC1 (stereo unspecified) | inconclusive: 35.5 µM [inhibitor, partial curve] | –
O=Cc1ccc2oc3nc4n(c(=O)c3c(=O)c2c1)CCCS4 | – | inactive: -23.3%
Cc1cccc(OCCCN2C(=O)C(=O)c3cc(C)ccc32)c1 | inconclusive: 39.8 µM [inhibitor, partial curve] | –
CCCCCOc1ccc(C(=O)N(Cc2ccco2)C2CCS(=O)(=O)C2)cc1 (stereo unspecified) | inconclusive: 35.5 µM [inhibitor, partial curve] | –
O=C(O)CCc1nc2ccccc2n(CCc2ccccc2)c1=O | – | inactive: -8.67%
COc1cc(C(=S)N2CCOCC2)ccc1OC(=O)/C=C/c1ccco1 | inconclusive: 15.8 µM [inhibitor, partial curve] | –
